# From a collection of fitness landscapes (doi:10.1126/science.1257360)
# Some of the results follow.
# B1: PhoQ; a variant is named by its letters at X, in order, P23837 (parent)
# chain: MKKLLRLFFPLSLRVRFLLATAAVVLVLSLAYGMVALIGYSVSFDKTTFRLLRGESNLFYTLAKWENNKLHVELPENIDKQSPTMTLIYDENGQLLWAQRDVPWLMKMIQPDWLKSNGFHEIEADVNDTSLLLSGDHSIQQQLQEVREDDDDAEMTHSVAVNVYPATSRMPKLTIVVVDTIPVELKSSYMVWSWFIYVLSANLLLVIPLLWVAAWWSLRPIEALAKEVRELEEHNRELLNPATTRELTSLVRNLNRLLKSERERYDKYRTTLTDLTHSLKTPLXXLQXXLRSLRSEKMSVSDAEPVMLEQISRISQQIGYYLHRASMRGGTLLSRELHPVAPLLDNLTSALNKVYQRKGVNISLDISPEISFVGEQNDFVEVMGNVLDNACKYCLEFVEISARQTDEHLYIVVEDDGPGIPLSKREVIFDRGQRVDTLRPGQGVGLAVAREITEQYEGKIVAGESMLGGARMEVIFGRQHSAPKDE
# Variants of: B1
# Test: enrichment ratio after two sorts for PhoP signalling (ratio (wild type AVST 3.29)); higher = more functional
# Settings: with PhoP (E. coli)
row,Variant,enrichment ratio
1,IFQV,≤ 0.25
2,RKVS,≤ 0.25
3,FEMW,≤ 0.25
4,IENK,≤ 0.25
5,TYES,≤ 0.25
6,KVIC,≤ 0.25
7,TFSI,7.21
8,RHLQ,≤ 0.25
9,VGVG,≤ 0.25
10,NIMF,≤ 0.25
11,EAMF,≤ 0.25
12,VCAP,≤ 0.25
13,WLPL,≤ 0.25
14,DNKA,≤ 0.25
15,NLPD,≤ 0.25
16,ACPK,≤ 0.25
17,NNMD,≤ 0.25
18,RYGR,≤ 0.25
19,MQCH,4.28
20,FFMF,≤ 0.25
21,EIIS,≤ 0.25
22,YRDV,≤ 0.25
23,PRWQ,≤ 0.25
24,RNQS,≤ 0.25
25,HWLF,≤ 0.25
26,LWLV,≤ 0.25

row,Variant,enrichment ratio
1,QFKY,≤ 0.25
2,EHTI,≤ 0.25
3,RLSF,≤ 0.25
4,NQVT,≤ 0.25
5,QDIG,≤ 0.25
6,WYCQ,≤ 0.25
7,HFSH,≤ 0.25
8,LMKQ,≤ 0.25
9,YWPC,≤ 0.25
10,YIRW,≤ 0.25
11,YMAN,0.263
12,TLCN,2.3
13,YQQI,≤ 0.25
14,GNTL,6.85
15,RQTL,≤ 0.25
16,RFVC,≤ 0.25
17,PNYL,≤ 0.25
18,RMQV,≤ 0.25
19,NTTF,≤ 0.25
20,TNCC,2.69
21,GEIF,≤ 0.25
22,GICA,11.2
23,DEQS,≤ 0.25
24,AEMP,≤ 0.25
25,QITQ,≤ 0.25
26,PAFA,≤ 0.25

row,Variant,enrichment ratio
1,FENE,≤ 0.25
2,LFYA,≤ 0.25
3,AGVE,≤ 0.25
4,YVGL,≤ 0.25
5,EYEQ,≤ 0.25
6,HSDP,≤ 0.25
7,DRHP,≤ 0.25
8,WDHN,≤ 0.25
9,TGDN,≤ 0.25
10,DIGT,≤ 0.25
11,KVPG,≤ 0.25
12,ADLF,≤ 0.25
13,NGCP,≤ 0.25
14,WHMN,≤ 0.25
15,PMYA,≤ 0.25
16,GYVT,≤ 0.25
17,PNLL,≤ 0.25
18,SQQK,≤ 0.25
19,NQKC,≤ 0.25
20,QTTM,≤ 0.25
21,LACS,≤ 0.25
22,QRHI,≤ 0.25
23,GHTR,≤ 0.25
24,ADFH,≤ 0.25
25,GVDT,≤ 0.25
26,HGMG,≤ 0.25

row,Variant,enrichment ratio
1,IGMQ,≤ 0.25
2,WGRQ,≤ 0.25
3,LKNS,≤ 0.25
4,ERMW,≤ 0.25
5,DFIH,≤ 0.25
6,ARYY,≤ 0.25
7,IDEY,≤ 0.25
8,NCEF,≤ 0.25
9,IGDK,≤ 0.25
10,IMCG,≤ 0.25
11,LFKT,≤ 0.25
12,PLPE,≤ 0.25
13,QHHP,≤ 0.25
14,QRIQ,≤ 0.25
15,AEFK,≤ 0.25
16,KCTV,≤ 0.25
17,DRRG,≤ 0.25
18,DVWV,≤ 0.25
19,YCNK,≤ 0.25
20,EEAN,≤ 0.25
21,YRKF,≤ 0.25
22,FSGN,≤ 0.25
23,RFTM,≤ 0.25
24,GVGY,≤ 0.25
25,LIGF,≤ 0.25
26,QCFL,≤ 0.25

row,Variant,enrichment ratio
1,RINQ,≤ 0.25
2,WPIP,≤ 0.25
3,HWHM,≤ 0.25
4,NNEL,≤ 0.25
5,SLQR,≤ 0.25
6,LDNF,≤ 0.25
7,QLSS,0.318
8,WSDY,≤ 0.25
9,WEEI,≤ 0.25
10,QANW,≤ 0.25
11,LTLF,0.632
12,WGVW,≤ 0.25
13,FGDQ,≤ 0.25
14,ICKM,≤ 0.25
15,QWAC,≤ 0.25
16,PYNC,≤ 0.25
17,ACLG,8.84
18,PCFR,≤ 0.25
19,WVKF,≤ 0.25
20,SDMG,7.99
21,QQHK,≤ 0.25
22,DMCP,≤ 0.25
23,ICGY,≤ 0.25
24,IRIN,≤ 0.25
25,WHMY,≤ 0.25
26,PKWR,≤ 0.25

row,Variant,enrichment ratio
1,MIPH,≤ 0.25
2,YLGM,≤ 0.25
3,SDIG,≤ 0.25
4,WGYL,≤ 0.25
5,TLWR,≤ 0.25
6,YGLI,2.27
7,MDQW,≤ 0.25
8,QMAV,≤ 0.25
9,ITMR,≤ 0.25
10,FYHL,≤ 0.25
11,IRQF,≤ 0.25
12,GMNR,≤ 0.25
13,MSCR,≤ 0.25
14,LFSD,≤ 0.25
15,FHPM,≤ 0.25
16,YWDT,≤ 0.25
17,FKVF,≤ 0.25
18,AMIA,≤ 0.25
19,IREL,≤ 0.25
20,EQKL,≤ 0.25
21,MEIV,6.05
22,DEVE,≤ 0.25
23,RSNE,≤ 0.25
24,PQGR,≤ 0.25
25,YKME,≤ 0.25
26,MEIE,≤ 0.25

row,Variant,enrichment ratio
1,QPFN,≤ 0.25
2,YCAH,0.38
3,HRVC,≤ 0.25
4,DPHR,≤ 0.25
5,RANT,≤ 0.25
6,WAIK,≤ 0.25
7,RVKA,≤ 0.25
8,MVEF,≤ 0.25
9,AFSF,≤ 0.25
10,QPAY,≤ 0.25
11,PDTH,≤ 0.25
12,HLCH,≤ 0.25
13,RWSN,≤ 0.25
14,LMND,≤ 0.25
15,PFKK,≤ 0.25
16,GKRD,≤ 0.25
17,HPQH,≤ 0.25
18,PGDT,≤ 0.25
19,RVFH,≤ 0.25
20,VTRL,≤ 0.25
21,LSLQ,1.79
22,PYVH,≤ 0.25
23,FIQQ,≤ 0.25
24,WHKG,≤ 0.25
25,LYPD,≤ 0.25
26,FLQK,≤ 0.25

row,Variant,enrichment ratio
1,LHKL,≤ 0.25
2,KMPL,≤ 0.25
3,DRIY,≤ 0.25
4,MLAM,15.5
5,ADIN,≤ 0.25
6,ISIF,≤ 0.25
7,RIDP,≤ 0.25
8,MSVK,≤ 0.25
9,TRQQ,≤ 0.25
10,YNVT,≤ 0.25
11,GEYI,≤ 0.25
12,MIIH,≤ 0.25
13,KIID,≤ 0.25
14,SYDS,≤ 0.25
15,WWPA,≤ 0.25
16,YKKR,≤ 0.25
17,GYQF,≤ 0.25
18,LVVV,≤ 0.25
19,NLPV,≤ 0.25
20,IIEP,≤ 0.25
21,THAD,0.554
22,FCVM,≤ 0.25
23,QDDC,≤ 0.25
24,DLCR,≤ 0.25
25,VLSF,≤ 0.25
26,HMIY,≤ 0.25

row,Variant,enrichment ratio
1,DHNN,≤ 0.25
2,NCLQ,≤ 0.25
3,QSQH,≤ 0.25
4,VPAC,≤ 0.25
5,KNTQ,≤ 0.25
6,FFVG,≤ 0.25
7,LLQY,≤ 0.25
8,WTYP,≤ 0.25
9,DKMH,≤ 0.25
10,GKSW,≤ 0.25
11,WEDV,≤ 0.25
12,NTDP,≤ 0.25
13,KHPV,≤ 0.25
14,CMFF,≤ 0.25
15,CLYN,≤ 0.25
16,STHN,≤ 0.25
17,TSKV,≤ 0.25
18,PKHK,≤ 0.25
19,VRSA,≤ 0.25
20,LFWP,≤ 0.25
21,YAVG,≤ 0.25
22,VNEC,≤ 0.25
23,NMGF,≤ 0.25
24,NTGW,≤ 0.25
25,EDIN,≤ 0.25
26,YAPN,≤ 0.25

row,Variant,enrichment ratio
1,PTDW,≤ 0.25
2,AIID,≤ 0.25
3,YPFC,≤ 0.25
4,TRNY,≤ 0.25
5,AFYV,≤ 0.25
6,GHMY,≤ 0.25
7,FCCY,≤ 0.25
8,SSRY,≤ 0.25
9,STVT,0.835
10,QKHC,≤ 0.25
11,TMKE,13.6
12,WFSD,≤ 0.25
13,EKWP,≤ 0.25
14,KCHQ,≤ 0.25
15,VTQA,≤ 0.25
16,WFTL,≤ 0.25
17,VSTF,≤ 0.25
18,SDTY,≤ 0.25
19,ERNS,≤ 0.25
20,MACL,7.63
21,RAFG,≤ 0.25
22,GYNY,≤ 0.25
23,FLDY,≤ 0.25
24,NGQR,≤ 0.25
25,DYVC,≤ 0.25
26,YPFG,≤ 0.25

row,Variant,enrichment ratio
1,VVTN,≤ 0.25
2,ECTD,≤ 0.25
3,FNPL,≤ 0.25
4,FQFM,≤ 0.25
5,IIVL,≤ 0.25
6,GDAQ,≤ 0.25
7,NLEA,≤ 0.25
8,NYSP,≤ 0.25
9,YRMV,≤ 0.25
10,HGNM,≤ 0.25
11,TAAF,18.4
12,WHNK,≤ 0.25
13,KCSD,≤ 0.25
14,GWCN,≤ 0.25
15,PFFK,≤ 0.25
16,QIAT,≤ 0.25
